Assay results reported in the supplement of paper PMC12645437, “Orthogonal IMiD-Degron Pairs Induce Selective Protein Degradation in Cells” (ACS Chemical Biology, 2025).
Some of the results follow.

biological target: no compound (DMSO); assay: log2 fold change of degron read counts, EGFP-low vs EGFP+ sorted cells; higher = lower degron-EGFP level without compound (poor expression or instability); conditions: compound: DMSO control; 18 h
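Further: jurkat cells carrying a lentiviral library of mutant zinc finger degrons fused to EGFP plus mCherry, mCherry+ cells FACS sorted, degron abundance counted by next-generation sequencing.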

FGCDQCGAKFTQKGNLLRHIKL was tested. Which “log2 fold change of degron read counts” value did it give?
Its value is -1.85.

How did the “log2 fold change of degron read counts” value turn out when FQCNQCGRNFTQKGNLLRHIKL was run?
The value was -0.528.

For FNCNQCGAGFTQKGNLLRHIKL, which “log2 fold change of degron read counts” value is on record?
Its value is -0.527.

FDCPVCGAHFTQKGNLLRHIKL was tested. Which “log2 fold change of degron read counts” value did it give?
The value was -1.03.

With FRCSVCGHGFTQKGNLLRHIKL as the sequence, how does the “log2 fold change of degron read counts” value read?
The value was 0.234.

For FLCEICGAVFTQKGNLLRHIKL, which “log2 fold change of degron read counts” value is on record?
The value was -1.09.

How did the “log2 fold change of degron read counts” value turn out when FCCEICGANFTQKGNLLRHIKL was run?
The value was -1.48.

Which “log2 fold change of degron read counts” value does the source give for FTCSVCGHVFTQKGNLLRHIKL here?
Its value is -0.881.

LMCNQCGFCCTQKGNLLRHIKL was tested. Which “log2 fold change of degron read counts” value did it give?
The value was 0.8.

LFCEICGFPCTQKGNLLRHIKL was tested. Which “log2 fold change of degron read counts” value did it give?
The value was 1.04.

How did the “log2 fold change of degron read counts” value turn out when LLCPICGFMCTQKGNLLRHIKL was run?
Its value is 0.927.

With FDCPICGHSFTQKGNLLRHIKL as the sequence, how does the “log2 fold change of degron read counts” value read?
Its value is -1.34.

FWCPICGAPFTQKGNLLRHIKL was tested. Which “log2 fold change of degron read counts” value did it give?
The value was 1.54.

Which “log2 fold change of degron read counts” value does the source give for FECNQCGANFTQKGNLLRHIKL here?
Its value is -2.42.

With FACEQCGAEFTQKGNLLRHIKL as the sequence, how does the “log2 fold change of degron read counts” value read?
Its value is -2.25.

Which “log2 fold change of degron read counts” value does the source give for FFCNICGANFTQKGNLLRHIKL here?
Its value is 0.00129.

How did the “log2 fold change of degron read counts” value turn out when FGCDICGALFTQKGNLLRHIKL was run?
Its value is -0.494.

Which “log2 fold change of degron read counts” value does the source give for FMCDICGATFTQKGNLLRHIKL here?
Its value is -1.9.

With FKCPICGATFTQKGNLLRHIKL as the sequence, how does the “log2 fold change of degron read counts” value read?
The value was -1.17.

With FRCDICGAQFTQKGNLLRHIKL as the sequence, how does the “log2 fold change of degron read counts” value read?
Its value is -0.732.

How did the “log2 fold change of degron read counts” value turn out when FECEICGARFTQKGNLLRHIKL was run?
Its value is -1.24.

Which “log2 fold change of degron read counts” value does the source give for FDCNQCGRVFTQKGNLLRHIKL here?
The value was 0.539.

How did the “log2 fold change of degron read counts” value turn out when FGCNQCGRNFTQKGNLLRHIKL was run?
The value was 0.602.

How did the “log2 fold change of degron read counts” value turn out when FCCPICGRMFTQKGNLLRHIKL was run?
The value was -0.107.

For LTCEICGFACTQKGNLLRHIKL, which “log2 fold change of degron read counts” value is on record?
The value was 0.111.

Which “log2 fold change of degron read counts” value does the source give for FSCDVCGASFTQKGNLLRHIKL here?
Its value is -2.06.

Which “log2 fold change of degron read counts” value does the source give for FQCPICGACFTQKGNLLRHIKL here?
The value was 0.29.

FSCPICGAFFTQKGNLLRHIKL was tested. Which “log2 fold change of degron read counts” value did it give?
The value was 0.485.

LWCNQCGFKCTQKGNLLRHIKL was tested. Which “log2 fold change of degron read counts” value did it give?
Its value is 1.79.

How did the “log2 fold change of degron read counts” value turn out when FFCNICGAVFTQKGNLLRHIKL was run?
Its value is 0.676.

FCCPICGRQFTQKGNLLRHIKL was tested. Which “log2 fold change of degron read counts” value did it give?
Its value is -0.239.

For FCCNICGAHFTQKGNLLRHIKL, which “log2 fold change of degron read counts” value is on record?
Its value is -0.497.

FFCPICGRTFTQKGNLLRHIKL was tested. Which “log2 fold change of degron read counts” value did it give?
Its value is 0.272.

FWCEQCGAWFTQKGNLLRHIKL was tested. Which “log2 fold change of degron read counts” value did it give?
Its value is 1.05.

How did the “log2 fold change of degron read counts” value turn out when FGCNQCGRVFTQKGNLLRHIKL was run?
The value was -0.0989.

How did the “log2 fold change of degron read counts” value turn out when FGCPVCGAHFTQKGNLLRHIKL was run?
Its value is 0.387.

FLCEVCGADFTQKGNLLRHIKL was tested. Which “log2 fold change of degron read counts” value did it give?
The value was -2.54.

FRCPICGHDFTQKGNLLRHIKL was tested. Which “log2 fold change of degron read counts” value did it give?
Its value is -0.727.

LLCPICGFFCTQKGNLLRHIKL was tested. Which “log2 fold change of degron read counts” value did it give?
The value was 2.11.

FQCPICGHEFTQKGNLLRHIKL was tested. Which “log2 fold change of degron read counts” value did it give?
The value was -0.59.

How did the “log2 fold change of degron read counts” value turn out when FFCPICGRWFTQKGNLLRHIKL was run?
The value was 1.29.

With FNCEQCGAEFTQKGNLLRHIKL as the sequence, how does the “log2 fold change of degron read counts” value read?
Its value is -2.96.

For FACEQCGACFTQKGNLLRHIKL, which “log2 fold change of degron read counts” value is on record?
Its value is -1.73.

How did the “log2 fold change of degron read counts” value turn out when FDCDICGAVFTQKGNLLRHIKL was run?
Its value is -0.981.

For FFCPQCGAFFTQKGNLLRHIKL, which “log2 fold change of degron read counts” value is on record?
The value was 1.44.

For FRCDVCGAHFTQKGNLLRHIKL, which “log2 fold change of degron read counts” value is on record?
Its value is -1.71.

FYCNQCGARFTQKGNLLRHIKL was tested. Which “log2 fold change of degron read counts” value did it give?
The value was -0.053.

With FICEQCGANFTQKGNLLRHIKL as the sequence, how does the “log2 fold change of degron read counts” value read?
The value was -2.35.

With FACNQCGRYFTQKGNLLRHIKL as the sequence, how does the “log2 fold change of degron read counts” value read?
The value was 0.918.

FRCPVCGAVFTQKGNLLRHIKL was tested. Which “log2 fold change of degron read counts” value did it give?
The value was 0.511.
